According to article PMC9061791:
Where a chain is given by its changes, count along the chain named. Results are given in words; binding and its absence hold for the method and conditions named. In cells and extracts the contact can be indirect. Some binding calls cover weakened binding; strength is not graded here. For part of these data: Sequences can lack the tags named with a protein.

Sequences of proteins named here, by UniProt entry; tags and fusion partners are left off. A change or cut given only in a name is not applied to a line headed by its entry.
UniProt Q9H082: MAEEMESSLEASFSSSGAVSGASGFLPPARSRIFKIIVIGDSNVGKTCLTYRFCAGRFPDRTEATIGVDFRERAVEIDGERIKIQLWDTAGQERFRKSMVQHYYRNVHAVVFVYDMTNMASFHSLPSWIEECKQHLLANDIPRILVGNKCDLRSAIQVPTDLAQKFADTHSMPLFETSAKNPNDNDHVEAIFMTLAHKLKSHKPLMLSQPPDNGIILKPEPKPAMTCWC
UniProt Q8TAG9: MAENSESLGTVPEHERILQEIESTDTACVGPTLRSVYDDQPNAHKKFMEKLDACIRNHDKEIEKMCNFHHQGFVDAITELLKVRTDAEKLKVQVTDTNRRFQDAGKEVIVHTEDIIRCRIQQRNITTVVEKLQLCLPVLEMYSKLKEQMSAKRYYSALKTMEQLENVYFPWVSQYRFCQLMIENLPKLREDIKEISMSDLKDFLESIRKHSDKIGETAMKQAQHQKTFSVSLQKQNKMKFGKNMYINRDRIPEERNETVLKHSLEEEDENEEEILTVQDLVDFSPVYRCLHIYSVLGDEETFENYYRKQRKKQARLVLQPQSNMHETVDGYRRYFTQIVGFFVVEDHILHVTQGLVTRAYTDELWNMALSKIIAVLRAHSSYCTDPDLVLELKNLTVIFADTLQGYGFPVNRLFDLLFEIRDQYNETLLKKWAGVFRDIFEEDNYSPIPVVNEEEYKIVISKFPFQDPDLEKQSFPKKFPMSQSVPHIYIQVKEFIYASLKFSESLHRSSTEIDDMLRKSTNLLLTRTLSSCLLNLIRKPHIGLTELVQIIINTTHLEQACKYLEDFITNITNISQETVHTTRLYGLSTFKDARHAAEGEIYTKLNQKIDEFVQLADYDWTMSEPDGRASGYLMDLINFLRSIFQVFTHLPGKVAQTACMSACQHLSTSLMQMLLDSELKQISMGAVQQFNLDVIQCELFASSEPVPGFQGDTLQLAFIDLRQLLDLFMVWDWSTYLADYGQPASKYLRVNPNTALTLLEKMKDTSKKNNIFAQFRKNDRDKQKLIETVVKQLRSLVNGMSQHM
UniProt Q9UPT5: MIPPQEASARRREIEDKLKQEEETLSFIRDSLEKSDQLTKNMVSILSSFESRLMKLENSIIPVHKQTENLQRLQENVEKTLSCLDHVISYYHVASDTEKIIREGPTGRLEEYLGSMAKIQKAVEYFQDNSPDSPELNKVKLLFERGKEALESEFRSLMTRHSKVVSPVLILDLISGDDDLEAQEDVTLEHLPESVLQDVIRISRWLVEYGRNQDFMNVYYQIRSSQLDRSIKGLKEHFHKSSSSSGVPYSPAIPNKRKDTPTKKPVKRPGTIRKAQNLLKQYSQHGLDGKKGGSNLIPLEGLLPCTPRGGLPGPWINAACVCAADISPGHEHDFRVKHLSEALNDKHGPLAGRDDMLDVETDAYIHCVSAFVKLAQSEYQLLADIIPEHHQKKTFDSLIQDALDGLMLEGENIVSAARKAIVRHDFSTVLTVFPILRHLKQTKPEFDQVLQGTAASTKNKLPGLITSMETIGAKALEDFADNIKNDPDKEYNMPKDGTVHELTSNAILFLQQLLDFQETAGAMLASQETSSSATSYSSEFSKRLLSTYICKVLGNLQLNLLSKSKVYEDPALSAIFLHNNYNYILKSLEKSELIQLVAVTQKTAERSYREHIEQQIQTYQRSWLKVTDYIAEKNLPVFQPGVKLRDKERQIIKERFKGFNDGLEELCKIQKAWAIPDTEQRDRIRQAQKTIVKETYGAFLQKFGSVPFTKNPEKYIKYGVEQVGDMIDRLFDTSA
UniProt O00471: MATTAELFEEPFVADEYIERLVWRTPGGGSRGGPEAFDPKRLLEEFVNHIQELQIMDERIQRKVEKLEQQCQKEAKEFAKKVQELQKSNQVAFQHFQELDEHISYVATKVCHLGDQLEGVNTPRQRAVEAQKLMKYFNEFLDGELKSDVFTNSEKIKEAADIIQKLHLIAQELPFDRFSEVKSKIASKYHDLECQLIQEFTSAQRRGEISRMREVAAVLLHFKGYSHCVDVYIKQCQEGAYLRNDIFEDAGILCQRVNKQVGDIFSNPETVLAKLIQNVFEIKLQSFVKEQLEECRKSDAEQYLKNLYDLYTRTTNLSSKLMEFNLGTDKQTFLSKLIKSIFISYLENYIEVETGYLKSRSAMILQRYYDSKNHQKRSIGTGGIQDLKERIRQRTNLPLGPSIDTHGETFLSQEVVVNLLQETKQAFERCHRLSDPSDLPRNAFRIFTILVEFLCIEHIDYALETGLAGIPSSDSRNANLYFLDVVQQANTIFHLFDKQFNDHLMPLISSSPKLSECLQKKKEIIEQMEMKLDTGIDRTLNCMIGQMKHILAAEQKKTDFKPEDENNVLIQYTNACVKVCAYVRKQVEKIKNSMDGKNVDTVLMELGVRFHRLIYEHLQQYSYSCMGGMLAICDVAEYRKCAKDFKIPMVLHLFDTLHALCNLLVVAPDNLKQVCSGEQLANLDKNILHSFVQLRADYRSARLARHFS

How the values were obtained:
[1] = molecular target: His-Rab33b T47N (UniProt Q9H082); test: pull-down; 12 μg purified His-tagged Rab bound to His-Dynabeads, loaded with 0.1 mM GTPγS to activate, incubated with 200 μL precleared U2OS cell lysate 30 min at 4°C; ten washes; eluted with 300 mM imidazole; Western blot; only the target purified
[2] = molecular target: His-Rab33b Q92L (UniProt Q9H082); test: as above
[3] = molecular target: His-Rab33b wt (UniProt Q9H082); test: as above
[4] = molecular target: GFP-Rab33b Q92L (UniProt Q9H082); test: co-IP; U2OS cells transiently transfected with GFP fusions, lysed (10 mM Tris-HCl pH 7.5, 150 mM NaCl, 0.5 mM EDTA, 0.1% NP-40); lysates 1 h at 4°C with GFP-Trap magnetic beads or non-coupled beads as control; Western blot
[5] = molecular target: GFP-Rab33b wt (UniProt Q9H082); test: as above
[6] = molecular target: GFP-Rab33b T47N (UniProt Q9H082); test: as above
[7] = molecular target: T1, His-Rab9 wt (UniProt P51151); test: condition: 12 μg of purified His-tagged protein on beads; pull-down; 12 μg purified His-tagged Rab bound to His-Dynabeads, loaded with 0.1 mM GTPγS to activate, incubated with 200 μL precleared U2OS cell lysate 30 min at 4°C; ten washes; eluted with 300 mM imidazole; Western blot; only the target purified
T1 sequence: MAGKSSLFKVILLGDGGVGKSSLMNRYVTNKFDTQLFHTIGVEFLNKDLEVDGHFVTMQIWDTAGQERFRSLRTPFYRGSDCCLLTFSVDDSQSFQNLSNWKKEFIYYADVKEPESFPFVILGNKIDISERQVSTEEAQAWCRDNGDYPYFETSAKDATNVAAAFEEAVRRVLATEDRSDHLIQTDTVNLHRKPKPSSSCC

[8] = molecular target: T2, His-Rab9 Q66L (UniProt P51151); test: as above
T2 sequence: T1 sequence with Q66L

| binding [1] | binding [2] | binding [3] | binding [4] | binding [5] | binding [6] | binding [7] | binding [8] | Substance |
| --- | --- | --- | --- | --- | --- | --- | --- | --- |
| binds weakly | binds | binds | binds | binds | binds | no binding | no binding | Exoc6 (endogenous, U2OS cells) (from UniProt Q8TAG9 1-804) |
| – | – | – | binds | binds | – | – | – | Exo70 (endogenous, U2OS cells) (from UniProt Q9UPT5 1-735) |
| – | – | – | binds | binds | – | – | – | Sec10 (endogenous, U2OS cells) (from UniProt O00471 1-708) |
